Among all 48,000 compounds or so, about 1,200 (2.5%) were called active. Another 2% or so got no clear call; they are omitted.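 How the source made its calls: active means activation of at least 60% and not above a set upper limit (about 1 call in 100 departs from these limits); inconclusive means activation of 40% to 60%, or above that upper limit; inactive means activation under 40%.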 Some of the results follow.
These compounds were tested against Probable G-protein coupled receptor 32 (Homo sapiens) (UniProt O75388) (assay: qHTS for Agonists of Human Resolvin D1 Receptor DRV1). Details: CHO-K1 GPR32 beta-arrestin PathHunter luminescence, 90 min; at 76.9 µM; stronger effect = higher value; zero percent set by DMSO-only wells.
Chain of UniProt O75388 (O75388 whole entry, looked up): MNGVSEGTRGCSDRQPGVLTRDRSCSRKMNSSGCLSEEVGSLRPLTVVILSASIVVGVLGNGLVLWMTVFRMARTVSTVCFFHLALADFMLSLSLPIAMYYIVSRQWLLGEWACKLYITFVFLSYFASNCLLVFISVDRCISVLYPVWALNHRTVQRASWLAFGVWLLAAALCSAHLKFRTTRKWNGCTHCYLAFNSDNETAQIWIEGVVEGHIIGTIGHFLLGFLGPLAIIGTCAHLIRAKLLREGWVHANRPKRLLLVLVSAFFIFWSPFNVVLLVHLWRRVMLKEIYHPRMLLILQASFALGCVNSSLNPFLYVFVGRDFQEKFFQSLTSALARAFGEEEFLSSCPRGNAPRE
Procedure, shortened: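 Step 1: seed CHO-K1 GPR32 beta-arrestin cells, 2,500/well, overnight at 37 °C. Step 2: add compounds, 90 min at 37 °C. Step 3: detection reagent, 1 h ambient, then luminescence.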
With COc1ccc(NC(=O)C(=O)c2cc(C)n(-c3ccc(C)cc3)c2C)cc1Cl the activation was inactive: 14.1%.
In the case of COc1ccc(C(=O)NCc2nnc(SCC(=O)Nc3ccc(C)cc3)n2-c2ccccc2)cc1, the activation is reported as inactive: -4.65%.
In the case of CCc1ccc(CNC(=O)c2ccc(NC(=O)N3CCSc4ncccc43)cc2)cc1, the activation is reported as inactive: -6.15%.
In the case of CCc1nc2nc(C)cc(Nc3cc(Cl)ccc3OC)n2n1, the activation is reported as inactive: -6.63%.
Cc1ccc(SCC(=O)Nc2ccc3oc(-c4ccc(F)cc4)nc3c2)cc1 was tested, and the activation was inactive: 8.89%.
For CCOc1ccc(CNC(=O)CCc2c(C)nn(-c3ccc(N4CCOCC4)nn3)c2C)cc1, the activation was inactive: 3.99%.
With Cc1ccc(S(=O)(=O)N2CCC(c3nnc(-c4cccc(C)c4)o3)CC2)cc1 the activation was inactive: -14.2%.
CCOc1ccc(CCNC(=O)c2ccc(C)c(-n3cnc4cccnc43)c2)cc1 was tested, and the activation was inactive: 2.06%.
For CC(C)NC(=O)Cn1c(=O)nc(-c2ccccc2)c2ccccc21, the activation was inactive: -5.84%.
For CCOc1ccc(Nc2cc(C)c(C#N)c3nc4ccccc4n23)cc1, the activation was inactive: 5.04%.
With Cc1cccc(N(C)C(=O)CS(=O)(=O)c2cccc3nsnc23)c1 the activation was inactive: -4.89%.
In the case of COc1cccc(CNC(=O)c2ccc3c(Cl)c4c(nc3c2)CCCC4)c1, the activation is reported as inactive: -7.34%.
With Cc1ccc(C(C)C)c(OCc2ccc(C(=O)Nc3ccc(S(N)(=O)=O)cc3C)o2)c1 the activation was inactive: 33.3%.
Cc1ccc(S(=O)(=O)c2nc(-c3ccco3)oc2SCC(=O)c2ccc(Cl)cc2)cc1 was tested, and the activation was inactive: -13%.
O=C(OCc1ccco1)c1ccc2c(c1)N(Cc1ccc([N+](=O)[O-])cc1)C(=O)c1ccccc1S2 was tested, and the activation was inactive: -9.91%.
For CCCCN(CCCC)C(C(N)=O)c1ccc(OC)cc1 (stereo not given), the activation was inactive: -4.53%.
Oc1ccccc1-c1nc(/C=C/c2ccccc2)nn1-c1ccccc1 was tested, and the activation was inactive: -13.3%.
In the case of O=C(CN1C(=O)COc2ccc(S(=O)(=O)N3CCCC3)cc21)NCCc1ccc(Cl)cc1, the activation is reported as inactive: -16.2%.
For Cc1nc(-n2nc(C)c(CCC(C)C)c2C)sc1C(=O)Nc1cccc(Cl)c1C, the activation was inactive: -6.32%.
For CCOC(=O)c1c(NC(=O)c2ccccc2C)sc2c1CCCC2, the activation was inactive: -7.23%.
CC1CCN(c2nn3c(=O)c(C(=O)NCCc4ccc(Cl)cc4)cnc3s2)CC1 was tested, and the activation was inactive: 39.2%.
COc1cc(OC)c(C(=O)CCCN2CCCC2)c(OC)c1 was tested, and the activation was inactive: -6.45%.
In the case of CC(=O)NCCc1c[nH]c2ccc(O)cc12, the activation is reported as inactive: 7.33%.
In the case of COc1ccc2oc(=O)cc(CN3CCN(C(=O)c4ccccc4Br)CC3)c2c1, the activation is reported as inactive: -19.7%.
In the case of O=c1[nH]c2ccc(NS(=O)(=O)c3ccc(F)cc3)cc2s1, the activation is reported as inactive: -7.84%.
CCOc1ccc2nc(N3CCN(C(=O)C(C)C)CC3)sc2c1 was tested, and the activation was inactive: 9.49%.
For Brc1ccc(-c2nc(N3CCN(c4ccccc4)CC3)c3ccccc3n2)cc1, the activation was inactive: -4.44%.
For Cn1nnnc1SCCCNCc1ccc(-c2cccc(Cl)c2)o1, the activation was inactive: -11.3%.
Cn1c(=O)c2c(-c3ccccc3)n3c(c2n(C)c1=O)C(c1cccc([N+](=O)[O-])c1)Nc1ccccc1-3 (stereo not given) was tested, and the activation was inactive: -7.23%.
In the case of Cc1ccc(NC(=O)C2CCCN(c3nc4ccccc4s3)C2)c(C)c1 (stereo not given), the activation is reported as inactive: -3.57%.
For COc1ccc(C(=O)N2CCN(CCc3ccccn3)CC2)cc1, the activation was inactive: -1.49%.
Cc1cccc(C)c1NC(=O)Cn1c(=O)n(CCC(=O)NCc2ccc3c(c2)OCO3)c(=O)c2sccc21 was tested, and the activation was inactive: -16.3%.
In the case of COc1ccc(-c2cc(C(F)(F)F)n3nc(C(=O)Nc4ccc(Cl)cc4C(F)(F)F)cc3n2)cc1OC, the activation is reported as inactive: -0.821%.
For O=S(=O)(c1cccc2c(I)cccc12)N1CCCNCC1, the activation was inactive: 39.3%.
In the case of Cc1oc(-c2ccccc2)nc1Cn1c(=O)cc(-c2ccccc2)c2c(C)nn(C)c21, the activation is reported as inactive: -15.8%.
CCN(C(=O)Cn1cnc2c1c(=O)n(C)c(=O)n2C)c1ccccc1C was tested, and the activation was inactive: 7.31%.
Cc1ccc(NC(=O)c2cnc(SCC(=O)N3CCCc4ccccc43)n(C)c2=O)cc1C was tested, and the activation was inactive: 3.77%.
CC(C)CN(CC(C)C)c1nnc(NC(=O)Nc2cccc(C(F)(F)F)c2)s1 was tested, and the activation was inactive: -9.84%.
For Cc1ccc2nc(Cl)c3cc(C(=O)N4CCCC(C)C4)sc3c2c1 (stereo not given), the activation was inactive: -20.4%.
With CCn1c(=O)c2cc(C(=O)NCCc3ccc(OC)c(OC)c3)sc2c2ccccc21 the activation was inactive: 21.3%.
In the case of CCOc1ccc(CNC(=O)c2ccc(Sc3ccc(C)cc3)c(N)c2)cc1OC, the activation is reported as inactive: -21%.
For COc1ccc(-c2cc(C(=O)Nc3c(C(=O)c4ccc(C)c(F)c4)oc4ccccc34)no2)cc1, the activation was inactive: -19.3%.
In the case of COc1ccc(OCC(=O)Nc2ccc3c(c2)N(C)C(=O)c2ccccc2S3)cc1, the activation is reported as inactive: 1.86%.
In the case of COc1ccc(C(C)=O)cc1CSc1nc(NCc2ccc(Cl)cc2)c2ccccc2n1, the activation is reported as inactive: -15%.
O=C(CCS(=O)(=O)c1nc(-c2ccc3c(c2)OCO3)cc(C(F)(F)F)n1)Nc1ccccc1C(F)(F)F was tested, and the activation was inactive: -6.73%.
COC(=O)Cn1c(SCCOc2ccccc2Cl)nc2ccccc21 was tested, and the activation was inactive: -5.21%.
In the case of COC(=O)CSc1nnc(-c2cccc(O)c2)o1, the activation is reported as inactive: -9.04%.
CCc1ccccc1NC(=O)c1cc(S(=O)(=O)N2CCC(C)CC2)cn1C was tested, and the activation was inactive: -4.68%.
For COc1ccc(-c2cc(C(F)(F)F)n3nc(C(=O)Nc4cccc(Cl)c4Cl)cc3n2)cc1OC, the activation was inactive: 2.89%.
In the case of CC1=C(C(=O)Nc2ccc(C)cc2C)C(c2cc(Br)ccc2F)n2ncc(C(=O)Nc3ccc(C)cc3)c2N1 (stereo not given), the activation is reported as inactive: -21.6%.
In the case of CCOC(=O)c1cc(-c2ccc(C)cc2)n(CC(=O)Nc2cc(C)ccc2C)c1C, the activation is reported as inactive: -1.96%.
CCC1CN(C(=O)N2CCC(C(=O)NCc3ccccc3F)CC2)c2ccccc2O1 (stereo not given) was tested, and the activation was inactive: -7.7%.
With O=C(Nc1ccc(C(F)(F)F)cc1)C1(c2cccs2)CCOCC1 the activation was inactive: 6.82%.
With CCCOC(=O)c1cccc(Nc2nc(C(=O)OCC)nc3ccccc23)c1 the activation was active: 92.6%.
With CC1CCCN(c2ncnc3c2nnn3C)C1 (stereo not given) the activation was inactive: -5.09%.

From PubChem BioAssay AID1346428 (National Center for Advancing Translational Sciences (NCATS), 2018)
Further: 0% is about no effect.
